# Hit rate of the full screen: of about 360,000 compounds, about 16,000 (4.4%) were called active. Inconclusive results, whose numbers are uncertain, are shown with a selection of clear calls. Calls follow the shape of the dose curve; as a rule, active = well fitted inhibition curve with a large enough effect; inconclusive = small, poorly fitted or top-dose-only effect; inactive = no such curve, though single readings can be large or run the other way. Where the call is inconclusive, the potency comes from a doubtful curve fit.
# Biological target: Bromodomain adjacent to zinc finger domain protein 2B (Homo sapiens) (UniProt Q9UIF8)
# Assay: qHTS Assay for Inhibitors of BAZ2B; also: nearly all actives have a fitted effect of over 60% in size
# Details: AlphaScreen BAZ2B-H3K14Ac peptide displacement; activity change, negative = inhibition: at 114 µM (top of the series)
# Outline: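 In this displacement format the biotinylated H3(5-23) peptide acetylated at Lys14 serves as ligand at 50 nM, with BAZ2B at 50 nM in PBS pH 7.4 containing 0.01% Tween-20. Donor and acceptor beads are 10 ug/mL final.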
# % is scaled to controls: 0 for no effect and ±100 for the full control effect; potency is read from the fitted curve at half-maximal effect; tags tell the direction and shape of the fitted curve.
# UniProt Q9UIF8, sequence (Q9UIF8 whole entry, looked up, the tested form may be a part): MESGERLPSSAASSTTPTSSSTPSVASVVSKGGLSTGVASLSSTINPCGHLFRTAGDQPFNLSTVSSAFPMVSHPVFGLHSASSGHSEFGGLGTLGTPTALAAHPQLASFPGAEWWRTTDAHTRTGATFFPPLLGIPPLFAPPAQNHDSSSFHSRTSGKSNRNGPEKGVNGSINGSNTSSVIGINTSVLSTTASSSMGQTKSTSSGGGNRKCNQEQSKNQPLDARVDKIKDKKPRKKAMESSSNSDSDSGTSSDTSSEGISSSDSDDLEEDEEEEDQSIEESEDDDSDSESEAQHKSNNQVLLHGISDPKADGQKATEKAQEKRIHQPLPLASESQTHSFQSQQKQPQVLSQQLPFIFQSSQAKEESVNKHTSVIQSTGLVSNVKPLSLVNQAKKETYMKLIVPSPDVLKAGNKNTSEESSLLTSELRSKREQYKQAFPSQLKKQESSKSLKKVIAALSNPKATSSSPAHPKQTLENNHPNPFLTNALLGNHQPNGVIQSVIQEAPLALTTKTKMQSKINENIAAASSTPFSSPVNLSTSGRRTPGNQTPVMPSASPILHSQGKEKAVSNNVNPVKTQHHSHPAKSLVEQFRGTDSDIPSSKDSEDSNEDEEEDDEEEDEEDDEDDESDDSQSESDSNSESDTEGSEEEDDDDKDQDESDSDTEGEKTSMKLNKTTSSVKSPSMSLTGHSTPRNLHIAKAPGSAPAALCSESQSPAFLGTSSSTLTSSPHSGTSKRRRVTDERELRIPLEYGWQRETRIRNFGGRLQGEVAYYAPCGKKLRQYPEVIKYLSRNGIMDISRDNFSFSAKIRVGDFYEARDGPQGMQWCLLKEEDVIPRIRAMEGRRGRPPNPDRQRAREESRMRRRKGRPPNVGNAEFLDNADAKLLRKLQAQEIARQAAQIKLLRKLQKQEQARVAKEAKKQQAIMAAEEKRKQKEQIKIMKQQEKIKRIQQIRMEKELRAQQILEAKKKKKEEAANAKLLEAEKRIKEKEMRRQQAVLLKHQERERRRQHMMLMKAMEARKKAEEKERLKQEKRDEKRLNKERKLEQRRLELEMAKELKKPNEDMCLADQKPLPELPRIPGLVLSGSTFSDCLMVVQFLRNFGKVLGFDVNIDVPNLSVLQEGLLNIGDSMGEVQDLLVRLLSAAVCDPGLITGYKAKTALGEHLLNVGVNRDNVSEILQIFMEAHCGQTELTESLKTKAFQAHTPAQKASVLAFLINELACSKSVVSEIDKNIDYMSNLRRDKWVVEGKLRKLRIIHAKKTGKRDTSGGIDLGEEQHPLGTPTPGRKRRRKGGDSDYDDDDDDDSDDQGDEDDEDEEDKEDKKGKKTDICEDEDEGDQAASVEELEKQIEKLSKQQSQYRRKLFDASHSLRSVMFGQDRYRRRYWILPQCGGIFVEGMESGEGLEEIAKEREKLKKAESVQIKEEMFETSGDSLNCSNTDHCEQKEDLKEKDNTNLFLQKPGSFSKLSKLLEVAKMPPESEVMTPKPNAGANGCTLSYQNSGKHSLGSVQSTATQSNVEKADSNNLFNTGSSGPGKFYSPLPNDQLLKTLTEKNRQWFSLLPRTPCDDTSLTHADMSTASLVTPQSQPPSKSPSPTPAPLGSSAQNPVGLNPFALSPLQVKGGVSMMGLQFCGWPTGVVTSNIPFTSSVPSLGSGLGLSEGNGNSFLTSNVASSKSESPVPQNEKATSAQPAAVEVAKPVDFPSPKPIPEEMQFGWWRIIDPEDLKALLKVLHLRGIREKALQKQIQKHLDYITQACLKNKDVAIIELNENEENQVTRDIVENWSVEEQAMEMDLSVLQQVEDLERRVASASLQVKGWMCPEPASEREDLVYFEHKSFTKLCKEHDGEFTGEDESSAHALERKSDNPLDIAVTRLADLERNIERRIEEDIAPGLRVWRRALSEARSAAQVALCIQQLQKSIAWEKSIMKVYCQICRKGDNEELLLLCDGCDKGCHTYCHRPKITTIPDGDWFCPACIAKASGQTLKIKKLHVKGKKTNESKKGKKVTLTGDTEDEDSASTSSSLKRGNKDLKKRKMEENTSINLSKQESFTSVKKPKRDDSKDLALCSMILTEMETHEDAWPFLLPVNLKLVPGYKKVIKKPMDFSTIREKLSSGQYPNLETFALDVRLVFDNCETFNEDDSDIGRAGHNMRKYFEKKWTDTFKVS
Compound,Potency,"activity change, negative = inhibition"
CC(C)(C)Nc1c(-c2ccc(O)cc2)nc2ccc(Cl)cn12,"inconclusive: 70.8 µM [inhibitor, single point]",
Cc1ccc(C)c(C(=O)COC(=O)c2cc([N+](=O)[O-])ccc2N2CCOCC2)c1,"inconclusive: 35.5 µM [inhibitor, partial curve]",
COc1ccc(NC(=O)CCCc2nc(-c3ccco3)no2)c(OC)c1,"inconclusive: 89.1 µM [inhibitor, single point]",
O=c1[nH]c(=S)c2ncn(-c3ccccc3)c2[nH]1,"inconclusive: 89.1 µM [inhibitor, single point]",
CCSc1ncnc2sc3c(c12)CCC3,,inactive: 60.9%
CCOC(=O)c1nnn(-c2ccc([N+](=O)[O-])cc2[N+](=O)[O-])c1C,,inactive: -23.4%
O=C(O)CCN(CCC(=O)O)c1ccccc1,"inconclusive: 89.1 µM [inhibitor, single point]",
CC(C)(C)c1[nH]nc2c1C(c1ccco1)C(C#N)=C(N)O2 (configuration not stated),"inconclusive: 79.4 µM [inhibitor, single point]",
CCc1nnc(NS(=O)(=O)c2ccc(Nc3ccc([N+](=O)[O-])c4nonc34)cc2)s1,active: 22.4 µM,
Cc1ccc(C)c(N2CCN(c3nc4ccccc4c4nc(CCn5nc(C)cc5C)nn34)CC2)c1,,inactive: 0.0644%
COc1cc(CN(C)Cc2cccc3ccccc23)cc([N+](=O)[O-])c1O,"inconclusive: 50.1 µM [inhibitor, partial curve]",
COc1ccc(CN(C(=O)CN2C(=O)C(C)Oc3ccccc32)C2CCCC2)c(OC)c1 (configuration not stated),"inconclusive: 79.4 µM [inhibitor, single point]",
Cc1ccc(S(=O)(=O)N2CCOC2CNC(=O)C(=O)NCCc2c[nH]c3ccccc23)cc1 (configuration not stated),"inconclusive: 50.1 µM [inhibitor, partial curve]",
CCn1c(-c2csc(-c3ccc(Cl)cc3)n2)n[nH]c1=S,,inactive: 6.16%
COC(=O)/C=C1\OC(c2ccccc2)=CC1=O,"inconclusive: 89.1 µM [inhibitor, single point]",
O=C1CCCN1CN1CCCCC1,active: 79.4 µM,
O=C(O)c1cccc(Nc2ncnc3sccc23)c1,,inactive: -14.2%
CC(=O)C1=C(O)C(=O)N(c2ccccn2)C1c1cccc(F)c1 (configuration not stated),"inconclusive: 89.1 µM [inhibitor, single point]",
O=S(=O)(/N=C(/Nc1ccc(Cl)c(S(=O)(=O)Nc2ccccc2Cl)c1)c1ccc(F)cc1)c1ccccc1,"inconclusive: 79.4 µM [inhibitor, single point]",

Compound,Potency,"activity change, negative = inhibition"
c1ccc(C2NCCn3cccc32)cc1 (configuration not stated),"inconclusive: 79.4 µM [inhibitor, single point]",
O=C(Nc1nccs1)c1ccc2ccccc2c1,"inconclusive: 79.4 µM [inhibitor, single point]",
COc1ccccc1-c1nnc(Nc2nc3c(OC)cccc3s2)o1,,inactive: 12.3%
O=C(CCC(=O)Nc1ccc(Cl)cc1Cl)N/N=C/c1ccc([N+](=O)[O-])o1,"inconclusive: 79.4 µM [inhibitor, single point]",
CC(CCc1ccccc1)NC(=O)CN1CCc2ccccc2C1 (configuration not stated),,inactive: -18%
Cc1cnc(C(=O)N2CCCC(C(=O)c3ccc(Cl)cc3C)C2)cn1 (configuration not stated),,inactive: -4.34%
COc1ccc(-c2nc(C#N)c(NCCCN(C)C)o2)cc1OC,"inconclusive: 70.8 µM [inhibitor, single point]",
O=C(CNC(=O)c1ccc(Cl)cc1Cl)OCC(=O)N1CCN(c2ccccc2)CC1,,inactive: -9.35%
COc1ccc(C(=O)[C@H]2[C@H]3C(=O)N(c4ccc(C)cc4)C(=O)[C@H]3C3C=CC=NN32)cc1 (some centres not stated),active: 39.8 µM,
Cc1ccc(Cn2ccnc2C(=O)Nc2ccccc2)cc1,,inactive: 15.5%
CC(=O)c1cccc(NC(=O)C(C)OC(=O)c2cc(=O)[nH]c3ccccc23)c1 (configuration not stated),,inactive: 10.9%
Cc1ccc(-n2c(CCC(=O)O)ccc2-c2cccs2)cc1C,"inconclusive: 79.4 µM [inhibitor, single point]",
CCC1CCCCN1Cc1nc(Cc2ccccc2Cl)no1 (configuration not stated),,inactive: 11.1%
Cc1sc2ncnc(N(C)Cc3cccs3)c2c1C,,inactive: 43.2%
Cc1cc(C(=O)COC(=O)c2cccn2C)c(C)n1Cc1ccco1,active: 44.7 µM,
Cc1ccc(S(=O)(=O)NCC(c2ccc(N(C)C)cc2)N2CCCC2)cc1 (configuration not stated),"inconclusive: 39.8 µM [inhibitor, partial curve]",
O=C(/C=C/c1cccc(Br)c1)OCC(=O)N1CCN(c2ccccc2)CC1,,inactive: -5.86%
Cc1nn(C(=O)C2CC2)c(C)c1Sc1ccc(Cl)cc1,,inactive: 87.4%
